This note sets out measurements from PubChem BioAssay AID1508623 (National Center for Advancing Translational Sciences (NCATS), 2021).

About 450 (0.94%) of roughly 48,000 compounds were called active. Roughly 19% stayed inconclusive and do not appear here. Calls follow the shape of the dose curve; as a rule, active = well fitted inhibition curve with a large enough effect; inconclusive = small, poorly fitted or top-dose-only effect; inactive = no such curve, though single readings can be large or run the other way. Some of the results follow.

The assay is described as follows: Primary qHTS for Identification of Small Molecule Inhibitors of Huntingtin Promoter Activity. Also: nearly all actives have a fitted effect of over 50% in size. The conditions noted are these: HEK293 HTT promoter firefly luciferase reporter (activity 0% = vehicle and -100% = no light), 24 h; series mostly up to 57.5 µM; activity change, negative = inhibition: at the top concentration. Put shortly: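 Luminescence was read after Dual-Glo reagent and a 10 min room-temperature incubation. Values were normalized to vehicle (0% activity) and zero RLU (-100% activity). Reporter HEK293 cells had been exposed to compounds (up to 57.5 uM final) for 24 h.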
Turning to `CCC(Cc1ccccc1)NC(=O)Cn1ncc2c3ccccc3n(Cc3ccccc3)c2c1=O` (stereo not given), the “activity change, negative = inhibition” value is inactive: 5.7%.
On to `CCc1nc2nc(C)cc(Nc3ccc(OC)cc3OC)n2n1`, for which the “activity change, negative = inhibition” value is inactive: -27.7%.
With `CC(C)C1CCC(C(=O)N[C@H](Cc2ccccc2)C(=O)O)CC1` (stereo not given in full) the entry was “inactive”; with `Cc1ccc2c(c1)NC(=O)C(CC(=O)Nc1ccccc1Cl)O2` (stereo not given), inactive: 3.07%.
Under `Cc1cc(C)n2nc(SCC(=O)Nc3ccccc3C)nc2n1` stands inactive: -8.37%; under `Cc1ccc(Cl)cc1N1CCN(C(=O)c2cc(S(=O)(=O)N3CCCC3)cn2C)CC1`, inactive: -28.4%; under `C=Cc1ccc(CN2C(=O)N(c3ccc(CC)cc3)S(=O)(=O)c3ccccc32)cc1`, inactive: -29.8%.
Under `COc1ccc(C)cc1NC(=O)CSc1nc(=O)n(Cc2ccncc2)c2c1CCC2` stands inactive: -3.5%; under `COc1ccc(C)cc1Nc1nc2cc(Cl)c(Cl)cc2nc1-n1nc(C)cc1C`, inactive: 6.8%; under `Cc1ccc(NC(=O)Cn2c(=O)n(-c3ccccc3)c(=O)c3c4c(sc32)CCCC4)cc1`, inactive: -6.83%.
For the compound `COc1cc(NC(=O)CN2C(=O)COc3ccc(S(=O)(=O)N4CCCCC4)cc32)cc(OC)c1`, the “activity change, negative = inhibition” value was inactive: -16.3%.
As to `CCCN1C(=O)C(Cc2nc3ccccc3c(=O)n2-c2ccccc2)c2cc(C)ccc21` (stereo not given), the “activity change, negative = inhibition” value was inactive: -29.8%.
Under `COC(=O)c1ccc(OCC2c3cc(OC)c(OC)cc3CCN2C(=O)C(C)C)cc1` (stereo not given) stands inactive: -28.3%; under `CCOC(=O)COc1ccc(C)cc1C(=O)c1ccn2nc(-c3ccc(C)cc3)cc2n1`, inactive: -9.32%.
`O=C(CSc1ncc2c(n1)-c1ccccc1N(Cc1ccccc1)S2(=O)=O)Nc1ccccc1`: the “activity change, negative = inhibition” value was inactive: -14.5%.
With `COCCNC(=O)c1ccc(CSc2nc3ccncc3n2Cc2ccccc2)cc1` the figure was inactive: 8.74%; with `CCC(=O)N1CCc2cc(S(=O)(=O)CCC(=O)N3CCN(c4cc(C)ccc4C)CC3)ccc21`, inactive: 4%; with `COc1cccc(NC(=O)CSc2nc3ccccc3n2C)c1`, inactive: 13%.
Under `CCOc1ccc(NC(=O)c2c(NC(=O)Cc3ccccc3)sc3c2CCC(C)C3)cc1` (stereo not given) stands inactive: -31.8%; under `COc1ccc(Cn2nnc(C(=O)Nc3cc(OC)ccc3OC)c2N)cc1`, inactive: -5.31%.
With `COCCCNC(=O)C1CCN(Cc2nc(-c3ccc(OC)c(OC)c3)oc2C)CC1` the figure was inactive: -6.31%.
For the compound `Cc1ccc(NC(=O)Cn2c(=O)n(Cc3ccco3)c(=O)c3ccc(C(=O)NC4CCCC4)cc32)c(C)c1`, the “activity change, negative = inhibition” value was inactive: -7.04%.
For `CCn1c(=O)cc(SCC(=O)NCCc2cc(OC)ccc2OC)c2ccccc21`, the “activity change, negative = inhibition” value was inactive: -5.36%.
As to `CCOc1ccc(NC(=O)c2c(NCc3ccc(C)o3)sc3c2CCC(C)C3)cc1` (stereo not given), the “activity change, negative = inhibition” value was inactive: -30.3%.
For `O=C(CN1C(=O)COc2ccc(S(=O)(=O)N3CCCC3)cc21)N1CCN(c2ccccc2)CC1`, the “activity change, negative = inhibition” value is inactive: -8.58%.
In the case of `O=C(CSc1ncc2c(n1)-c1ccc(Cl)cc1N(Cc1ccccc1)S2(=O)=O)Nc1ccc(F)c(F)c1`, the “activity change, negative = inhibition” value was inactive: -21.4%.
Under `COc1ccc2c(Sc3ccccc3)c(C(=O)NCCc3ccc(Cl)cc3)[nH]c2c1` stands inactive: 5.18%; under `CCOC(=O)C1CCCN(CC(=O)N2CCCc3c2c(=O)oc2ccc(OCc4ccccc4)cc32)C1` (stereo not given), inactive: -28%.
With `CCN1CCN(CCCNC(=O)c2cc3c(s2)-c2ccccc2OC3)CC1` the figure was inactive: 12.3%.
In the case of `COc1cc(OC)cc(C(=O)Nc2cc(-c3nc4cc(Cl)ccc4o3)ccc2Cl)c1`, the “activity change, negative = inhibition” value was inactive: 51.5%.
`CCc1ccc(NC(=O)c2sc3ncnc(N(C)C4CCCCC4)c3c2C)cc1`: the “activity change, negative = inhibition” value was inactive: -29.7%.
Under `CCOc1ccc(C2C(C(N)=O)=C(C)Nc3nc(SCc4ccccc4)nn32)cc1` (stereo not given) stands inactive: -5.06%; under `CC(=O)C1=C(c2ccc(C)cc2)N(C(C)=O)n2c(nnc2C2CCCCC2)S1`, inactive: -10.5%; under `CCCCNC(=O)CSc1nc2ccccc2nc1Cc1ccc(C)cc1`, inactive: -7.79%.
With `COc1cccc(CN2C(=O)c3ccccc3Sc3ccc(C(=O)N(C)Cc4ccccc4)cc32)c1` the figure was inactive: -29.9%; with `COc1cccc2cc(-c3nc(Nc4cccc(C)c4)sc3C)c(=O)oc12`, inactive: -22.6%; with `O=C(c1cccs1)c1cn(CCOc2ccccc2F)c2ccccc12`, inactive: -6.34%.
Under `COc1cc(C2c3c(-c4ccccc4O)n[nH]c3C(=O)N2CCO)ccc1OCc1ccccc1` (stereo not given) stands inactive: -28.3%; under `CCOC(=O)c1ccccc1NC(=O)c1c2c(nc3ccccc13)C(=O)N(C1CCCCC1)C2`, inactive: -11.9%; under `COc1ccc(C(=O)Nc2nc3nc(C)c(Cc4ccccc4)c(=O)n3[nH]2)cc1OC`, inactive: -12.6%.
For the compound `Cc1ccc(CNC(=O)COCc2cc(-c3cccs3)on2)cc1`, the “activity change, negative = inhibition” value is inactive: -6.72%.
Under `CCOc1ccc(CNC(=O)C2CCN(S(=O)(=O)N3CCC(C)CC3)CC2)cc1OC` stands inactive: -6.25%.
Under `CC1=C(C(=O)Nc2cccnc2)C(c2cccc(Br)c2)n2nc(SCc3ccccc3)nc2N1` (stereo not given) stands inactive: -6.4%; under `COc1cc(NC(=O)C2CCN(c3cnc4ccccc4n3)CC2)cc(OC)c1OC`, inactive: -16.2%.
Take `CCCc1cc(=O)n2[nH]c(NC(=O)c3ccc(C(C)(C)C)cc3)nc2n1`: the “activity change, negative = inhibition” value is inactive: -24%.
With `CC1=C(C(=O)Nc2ccccc2C)C(c2ccncc2)n2nc(SCc3ccccc3Cl)nc2N1` (stereo not given) the figure was inactive: -15.2%; with `Cc1cccc(-c2noc(-c3ccccc3NC(=O)C3CC(=O)N(c4ccccc4C)C3)n2)c1` (stereo not given), inactive: 9.54%; with `CCn1c(=O)c2cc(C(=O)Nc3cc(OC)c(OC)c(OC)c3)sc2c2ccccc21`, inactive: -6.69%.
For `Cn1ccc2cc(S(=O)(=O)N3CCCC(C(=O)NCc4ccccc4)C3)ccc21` (stereo not given), the “activity change, negative = inhibition” value was inactive: 0%.
Take `O=C(COc1ccc(F)cc1)OCc1cc(=O)n2nc(C3CCCCC3)sc2n1`: the “activity change, negative = inhibition” value is inactive: -8.62%.
With `Cc1cc(-c2ccc(C)c(S(=O)(=O)NC(c3cccs3)C(C)C)c2)on1` (stereo not given) the figure was inactive: -46.5%.
As to `O=C(NCCS(=O)(=O)N1CCN(c2ccccc2)CC1)C1CC(=O)N(c2ccc(F)cc2)C1` (stereo not given), the “activity change, negative = inhibition” value was inactive: -7.96%.
In the case of `COc1ccc(NC(=O)CCSc2nc(-c3ccc(OC)cc3)cc(C(F)(F)F)n2)cc1`, the “activity change, negative = inhibition” value was inactive: -5.34%.
With `CCc1nnc(SCc2c(F)cccc2Cl)c2cc3sccc3n12` the figure was inactive: 4.45%; with `Cc1ccc(NC(=O)Cn2cc(C(=O)C3CC3)c3ccccc32)c(C)c1`, inactive: 8.68%; with `CC(C)CCNC(=O)c1ccc2c(c1)NC(=O)C(CS(=O)(=O)Cc1ccc(F)cc1)N2` (stereo not given), inactive: -2.81%.
Consider `CC1=C(C(=O)N2CCN(c3cc(C)ccc3C)CC2)C2(CCC(C)CC2)OC1=O` (stereo not given), for which the “activity change, negative = inhibition” value was inactive: -9.88%.
With `COc1ccc(C(C(=O)NCc2ccccc2)N(C(=O)Cn2nnc3ccccc32)c2cccc(OC)c2)cc1` (stereo not given) the figure was inactive: -6.5%.
Regarding `CCOc1ccc(NC(=O)C2(c3cccs3)CCOCC2)cc1`, the “activity change, negative = inhibition” value was inactive: -3.27%.
As to `Cc1cc(C)c2sc(NC(=O)c3ccc(S(=O)(=O)N4CCCC4)cc3)nc2c1`, the “activity change, negative = inhibition” value was inactive: -15.5%.
